Test: Aggregation risk of conjugate products stored at 4 °C (supernatant protein, OD280)
Format: physicochemical
Conditions: antibody conjugated to L1-P1
Experimental: CE947, BA191, CE560, and CA360 were conjugated to L1-P1 to obtain antibody-polypeptide conjugates. The conjugate products were stored at 4 °C for 3 days and observed for precipitate formation. After centrifugation, the protein content in the supernatant before and after storage was detected (OD280 was measured), and the reduction proportion of the conjugate products was calculated. […] Table 13. Reduction proportion of supernatant protein after 3 days of conjugate product storage at 4 °C

Row | Molecule | Reduction proportion of supernatant protein after 3 days of storage at 4 °C
1 | CA360: GIPR blocking type antibody from phage library Q2; CDRs SEQ ID NO: 40-45 (antibody) heavy: EVQLVQSGAEVKKPGSSVKVSCKASGGTFSGYPINWVRQAPGQGLEWMGRIIPIPGIPNYAQKFQDRVTITADKFANTAYMELSSLRSEDTAVYYCARDPLGPYVFDIWGQGTMVTVSSASTKGPSVFPLAPSSKSTSGGTAALGCLVKDYFPEPVTVSWNSGALTSGVHTFPAVLQSSGLYSLSSVVTVPSSSLGTQTYICNVNHKPSNTKVDKKV[human IgG1 Fc with changes omitted here] light: DIVMTQSPATLSVSPGERATLSCRASQSVSSNLAWYQQKPGQAPRLLIYGASTRATGIPARFSGSGSGTEFTLTISSLQSEDFAVYYCQQYNNWPLTFGGGTKVEIKRTVAAPSVFIFPPSDEQLKSGTASVVCLLNNFYPREAKVQWKVDNALQSGNSQESVTEQDSKDSTYSLSSTLTLSKADYEKHKVYACEVTHQGLSSPVTKSFNRGEC | 0%
2 | CE947: GIPR blocking type antibody, IgG1, from phage library Q1; CDRs SEQ ID NO: 11-16 (antibody) heavy: EVQLVQSGAEVKKPGSSVKVSCKASGGTFNNYAISWVRQAPGQGLEWMGRIIPFLDIASNAQKFQGKVTITADKSTSTAYMELSSLRSEDTAVYYCAREVDWGWFDSWGQGTLVTVSSASTKGPSVFPLAPSSKSTSGGTAALGCLVKDYFPEPVTVSWNSGALTSGVHTFPAVLQSSGLYSLSSVVTVPSSSLGTQTYICNVNHKPSNTKVDKKV[human IgG1 Fc with changes omitted here] light: DIQMTQSPSSLSASVGDRVTITCRASQGISNYLAWFQQKPGKAPKSLIYAASSLQSGVPSRFSGSGSGTDFTLTISNLQPEDFATYYCLQYYDYPLTFGGGTKLEIKRTVAAPSVFIFPPSDEQLKSGTASVVCLLNNFYPREAKVQWKVDNALQSGNSQESVTEQDSKDSTYSLSSTLTLSKADYEKHKVYACEVTHQGLSSPVTKSFNRGEC | 18%
3 | CE560: GIPR blocking type antibody from phage library Q1; CDRs SEQ ID NO: 48-53 (antibody) heavy: EVQLVQSGAEVKKPGSSVKVSCKASGGTFNNYAISWVRQAPGQGLEWMGRIIPFLDIASYAQKFQGKVTITADKSTSTAYMELSSLRSEDTAVYYCAREVDWGWFDSWGQGTLVTVSSASTKGPSVFPLAPSSKSTSGGTAALGCLVKDYFPEPVTVSWNSGALTSGVHTFPAVLQSSGLYSLSSVVTVPSSSLGTQTYICNVNHKPSNTKVDKKV[human IgG1 Fc with changes omitted here] light: IQMTQSPSSLSASVGDRVTITCRASQGISSYLAWYQQKPGKAPKLLIYAASTLQSGVPSRFSGSGSGTDFTLTISSLQPEDFATYYCQQLNSYPLTFGGGTKVEIKRTVAAPSVFIFPPSDEQLKSGTASVVCLLNNFYPREAKVQWKVDNALQSGNSQESVTEQDSKDSTYSLSSTLTLSKADYEKHKVYACEVTHQGLSSPVTKSFNRGEC | 1%
4 | BA191: GIPR blocking type antibody, IgG1, from phage library Q3; CDRs SEQ ID NO: 3-8 (antibody) heavy: EVQLVQSGAEVKKPGSSVKVSCKASGGTFSTFSSYAISWVRQAPGQGLEWMGRIIPILGIGNNAQKFQGRVTITADKSTSTAYMELSSLRSEDTAVYYCAREKDWGHFDYWGQGTLVTVSSASTKGPSVFPLAPSSKSTSGGTAALGCLVKDYFPEPVTVSWNSGALTSGVHTFPAVLQSSGLYSLSSVVTVPSSSLGTQTYICNVNHKPSNTKVDKKV[human IgG1 Fc with changes omitted here] light: DIQMTQSPSSLSASVGDRVTITCRASQGISNYLAWFQQKPGKAPKSLIYAASSLQSGVPSKFSGSGSGTDFTLTISSLQPEDFATYYCQQYNSYPITFGQGTRLEIKRTVAAPSVFIFPPSDEQLKSGTASVVCLLNNFYPREAKVQWKVDNALQSGNSQESVTEQDSKDSTYSLSSTLTLSKADYEKHKVYACEVTHQGLSSPVTKSFNRGEC | 42%

Reference: patent EP4803098A1, “GIPR BLOCKING TYPE ANTIBODY AND ANTIBODY CONJUGATE THEREOF” (Shandong Boan Biotechnology Co., Ltd., priority 2023, dated 2025)
